Results published in PubChem BioAssay AID1345083 (National Center for Advancing Translational Sciences (NCATS), 2018).
The whole screen tested about 94,000 compounds, of which about 6,200 (6.6%) were called active. Inconclusive means that the source gave no clear call. Such entries were picked first, then a sample of the others. The call rests on the fitted dose curve; in most records, active means well fitted inhibition curve with a large enough effect; inconclusive means small, poorly fitted or top-dose-only effect; inactive means flat fitted curve, though single readings scatter. Potencies beside an inconclusive call are fits to weak or partial responses and may not hold up.

test: Cytotoxic Profiling in HEK 293 Cell Line of Diverse Libraries Using Quantitative High-Throughput Screening; conditions: HEK 293 viability, ATP luminescence (CellTiter-Glo), 48-72 h; activity change, negative = cytotoxicity: at 115 µM (top of the series) unless noted; series mostly up to 115 µM; further: nearly all actives have a fitted effect of over 60% in size
In short: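 Read-out: CellTiter-Glo ATP luminescence. Cells: HEK 293, 250 cells/well. Exposure: 48 or 72 hr, 37 degree Celsius.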
On the % scale 0 is the no-effect control and ±100 the full control effect; potency means the concentration at half of the fitted maximal effect; tags describe the fitted curve by direction and shape.

| SMILES | Potency | activity change, negative = cytotoxicity | outcome |
| --- | --- | --- | --- |
| Cc1nc(N2CCCCC2)n(CC(=O)Nc2ccc(F)cc2)c(=O)c1C | inconclusive: 50.1 µM [inhibitor, partial curve, poor fit] | – | – |
| COc1cccc(C(=O)N2CCN(c3cc(-c4cccs4)[nH]n3)CC2)c1OC | inconclusive: 50.1 µM [inhibitor, partial curve, poor fit] | – | – |
| COC[C@@H]1[C@H](NC(=O)c2cc(N3CCCCC3)ccc2Cl)[C@@H]2CCO[C@H]12 | inconclusive: 89.1 µM [inhibitor, single point] | – | – |
| O=C(c1ccc(F)cc1)N1CCC(C(=O)N2CCC(c3nc4ncccc4[nH]3)CC2)CC1 | – | inactive: -17.2% | – |
| O=C1NCCCCCCN(C(=O)Cc2ccccc2)[C@@H]2C[C@@H](c3nc(-c4cccnc4)no3)C[C@H]12 | inconclusive: 35.5 µM [inhibitor, full curve, poor fit] | – | – |
| CCn1cc(CN2CCC3(CC2)CC(C(=O)N2CCOCC2)N(C)C3)cn1 (configuration not stated) | – | inactive: -1.18% | – |
| COCC(=O)NC1CCN(c2ccc3nnc(-c4ccccc4)n3n2)C1 (configuration not stated) | – | inactive: -5.02% [at 172 µM] | – |
| Cc1cc(C)cc(C(=O)N2CCC(c3n[nH]c(=O)n3-c3ccccc3)CC2)c1 | – | inactive: -21.7% | – |
| COc1ccc([C@H]2C[C@@H](O)[C@@H](O)[C@@H]2NCc2cccc(OC)c2)cc1 | – | inactive: -19.5% [at 172 µM] | – |
| COc1ccc(-c2ccc(C(=O)N3CCN([S+](=O)([O-])c4cccc(C(F)(F)F)c4)CC3)cc2)nn1 | inconclusive: 44.7 µM [inhibitor, partial curve] | – | – |
| CCC1=C(C(=O)OC)C(c2cccc(OC)c2)N2C(CC(=O)N3CCOCC3)=CSC2=N1 (configuration not stated) | inconclusive: 89.1 µM [inhibitor, single point] | – | – |
| CNC(c1ccccc1)c1ccccc1 | – | inactive: 4.86% [at 172 µM] | – |
| FC(F)(F)c1ccc(Oc2ccc(CN3CCCC3)cc2Cl)nc1 | inconclusive: 25.1 µM [inhibitor, full curve, poor fit] | – | – |
| O=C(Cc1ccccc1Cl)N1CCCN(c2cc(-c3ccccc3)[nH]n2)CC1 | inconclusive: 50.1 µM [inhibitor, partial curve, poor fit] | – | – |
| O=C1NCc2ccccc2CC12CCCCN2Cc1ccccc1 (configuration not stated) | – | inactive: -15.5% | – |
| CCOc1ccccc1C1NC(=O)N(CC(=O)Nc2cccc(C)c2)C2=C1C(=O)OC2 (configuration not stated) | inconclusive: 56.2 µM [inhibitor, partial curve, poor fit] | – | – |
| Cc1ccc(CN2CCCN(S(C)(=O)=O)C(c3ccccc3)CC(=O)NCC2)s1 (configuration not stated) | inconclusive: 25.1 µM [inhibitor, full curve] | – | – |
| CCOc1ccc(C(=O)NCCn2cccc2-c2nc(-c3ccccc3)no2)cc1OCC | inconclusive: 89.1 µM [inhibitor, single point] | – | – |
| COC(=O)[C@@H]1Cc2c([nH]c3ccccc23)[C@H]2C[C@H](NCCO)C[C@@H](c3ccccc3)N21 | inconclusive: 25.1 µM [inhibitor, full curve, poor fit] | – | – |
| CCN1C(=O)CN(C(=O)c2ccncc2)CC12CCOCC2 | – | inactive: -0.569% | – |
| O=C(C[C@@H]1CCNC[C@@H]1Cc1cc(CSc2ccccc2)on1)NCc1cccs1 | inconclusive: 79.4 µM [inhibitor, partial curve, poor fit] | – | – |
| Cc1ccc(C(=O)NC2CCN(c3ccc(F)cc3)C2=O)s1 (configuration not stated) | – | inactive: 4.46% | – |
| Cc1noc(C)c1-c1cc2cc(C(C)C)oc2c(NCc2cccnc2)n1 | inconclusive: 50.1 µM [inhibitor, partial curve, poor fit] | – | – |

| SMILES | Potency | activity change, negative = cytotoxicity | outcome |
| --- | --- | --- | --- |
| CCCCc1nn(CC(=O)NCc2c(C)noc2C)c(=O)n1-c1ccccc1 | inconclusive: 25.1 µM [inhibitor, full curve, poor fit] | – | – |
| N#Cc1cccc(CN2CCCC(c3[nH]ccc3C(N)=O)C2)c1 (configuration not stated) | – | inactive: -22% | – |
| O=C(c1cc(F)cc(F)c1)N1CCC(Cc2nc(-c3ccccc3)no2)CC1 | inconclusive: 31.6 µM [inhibitor, partial curve, poor fit] | – | – |
| CCN(CC)C(=O)C1=C(C)N=C2SC=C(CC(=O)NCc3ccco3)N2C1c1ccccc1F (configuration not stated) | inconclusive: 50.1 µM [inhibitor, partial curve, poor fit] | – | – |
| Cc1noc(C2CC3(CCN(C(=O)CC(C)C)CC3)CN2C)n1 (configuration not stated) | – | inactive: -4.19% | – |
| O=C(c1ccc2cccc(F)c2n1)N1CCOc2ccc(Cl)cc2C1 | inconclusive: 56.2 µM [inhibitor, partial curve, poor fit] | – | – |
| COc1ccccc1CN1CC(c2noc(CCC(=O)c3ccc(C)cc3)n2)CC1=O (configuration not stated) | inconclusive: 50.1 µM [inhibitor, partial curve, poor fit] | – | – |
| O=C(O)COc1ccc(-c2nccc3c2C(=O)N(Cc2c[nH]c4ccccc24)CC(CNC(=O)c2cccc(Cl)c2)O3)cc1 (configuration not stated) | – | inactive: -10% | – |
| O=C1COCC2(CN1)CN(c1ccc(Oc3ccccc3)cc1)C2 | inconclusive: 112 µM [inhibitor, partial curve, poor fit] | – | – |
| C[S+](=O)([O-])Nc1cccc(Nc2cnc3ccc(-c4ccccc4)nn23)c1 | inconclusive: 100 µM [inhibitor, partial curve] | – | – |
| O=C(COc1ccccc1)Nc1ccc2c(N3CCOCC3)ncnc2c1 | inconclusive: 31.6 µM [inhibitor, full curve] | – | – |
| O=C(NCc1cccc(Cl)c1)C1CCCN(Cc2cccc(-c3ccsc3)c2)C1 (configuration not stated) | active: 31.6 µM | – | – |
| CC(=O)N1CCN(C[C@@H]2C=C(C)[C@H](Cc3nnc(-c4cccnc4)o3)C[C@H]2C(C)C)CC1 | inconclusive: 50.1 µM [inhibitor, partial curve, poor fit] | – | – |
| CN(C)c1ccc(CN2CCn3c(nn(-c4ccc([N+](=O)[O-])cc4)c3=O)C2)cc1 | active: 31.6 µM | – | – |
| O=C(c1ccccc1)N1CCC(N2Cc3ccccc3C2=O)CC1 | – | inactive: -2.98% | – |
| O=C(NCc1cccs1)C1CN(c2cccc(Cl)c2)C(=O)N1 (configuration not stated) | inconclusive: 56.2 µM [inhibitor, partial curve, poor fit] | – | – |
| O=C(c1ccccc1F)N1CCN(c2nccc(Nc3ccccc3Cl)n2)CC1 | inconclusive: 44.7 µM [inhibitor, partial curve, poor fit] | – | – |
| COCCNC(=O)c1nc(-c2ccc(OC)cc2)c2ccccn12 | inconclusive: 79.4 µM [inhibitor, partial curve, poor fit] | – | – |
| CCCNC(=O)NC[C@@H]1C=C(C)[C@H](Cc2nc3ccc(OC)cc3[nH]2)C[C@H]1C(C)C | inconclusive: 56.2 µM [inhibitor, partial curve, poor fit] | – | – |
| O=C(NCc1ccc(C(F)(F)F)cc1)C1CCCN(Cc2cccc(-c3ccsc3)c2)C1 (configuration not stated) | inconclusive: 31.6 µM [inhibitor, full curve, poor fit] | – | – |
| O=c1[nH]nc(CNCC2(O)CCCNC2)c2ccccc12 (configuration not stated) | inconclusive: 25.1 µM [inhibitor, single point] | – | – |
| CCN1c2cc(C(=O)Nc3ccc(OC)cc3OC)ccc2C(=O)N2CCCC21 (configuration not stated) | inconclusive: 89.1 µM [inhibitor, single point] | – | – |
| CCc1cccc(NC(=O)C2Cn3cccc3C(=O)N2C)c1 (configuration not stated) | – | inactive: -27.1% | – |

| SMILES | Potency | activity change, negative = cytotoxicity | outcome |
| --- | --- | --- | --- |
| COc1ccccc1C(=O)Nc1ccnn1C1CCN(c2nccc(N)n2)CC1 | inconclusive: 39.8 µM [inhibitor, single point] | – | – |
| Cc1ccc(CNC(=O)CCc2ccnc(N3CCCC3)c2)cc1 | – | inactive: 3.37% | – |
| COc1ccc(CN2CCN(c3ccnc(C)n3)CC2CCO)c(C)c1C (configuration not stated) | inconclusive: 25.1 µM [inhibitor, full curve] | – | – |
| COc1ccc(-c2noc([C@@H]3C[C@H](NCc4ccc(N(C)C)cc4)CN3C)n2)cc1 | active: 35.5 µM | – | – |
| Cn1cncc1C(=O)NC1CCN(c2ccc(=O)n(C)n2)CC1 | – | inactive: 3.89% | – |
| O=C(C1CCN(c2nccc(Nc3ccccc3Cl)n2)CC1)N1CCC(c2ncccn2)CC1 | inconclusive: 50.1 µM [inhibitor, partial curve, poor fit] | – | – |
| Cc1ccc(OCCC2CCNC2)cc1 (configuration not stated) | inconclusive: 89.1 µM [inhibitor, single point] | – | – |
| CC(=O)NC1CN(c2ccnc3ccnn23)C1 | – | inactive: -10.6% [at 172 µM] | – |
| CN(CCc1cn[nH]c1)c1ccc(-c2nc(-c3ccccc3F)no2)cn1 | active: 31.6 µM | – | – |
| CCCNC(=O)N1CCC2(CCC2NC(=O)COC)CC1 (configuration not stated) | – | inactive: -27.8% | – |
| O=C(Nc1ccc(F)cc1F)N1CCC2(CC1)SCC(=O)N2c1ccc(Cl)cc1 | inconclusive: 79.4 µM [inhibitor, single point] | – | – |
| CN(CCc1ccccc1)C(=O)c1cc(-c2ccc[nH]2)n[nH]1 | – | inactive: -16.7% | – |
| COc1cccc(OCC(=O)c2ccc3c(c2)N(CCCC(=O)NCC2CCCO2)C(=O)CO3)c1 (configuration not stated) | inconclusive: 89.1 µM [inhibitor, partial curve, poor fit] | – | – |
| Cc1ccsc1-c1[nH]nc2ncc(-c3ccc(F)cc3)nc12 | active: 70.8 µM | – | – |
| COc1ccc(S(=O)(=O)N2CCC(c3noc(-c4ccncc4)n3)C2)cc1 (configuration not stated) | inconclusive: 70.8 µM [inhibitor, partial curve, poor fit] | – | – |
| CCN(CC)Cc1cnc2c(C(=O)N(C)Cc3cc(C)cc(C)n3)cnn2c1 | – | – | inactive |
| CN1CCC(Cn2ccc3c(N4CCOCC4)nc(-c4cccc(C(N)=O)c4)cc32)CC1 | inconclusive: 100 µM [inhibitor, partial curve] | – | – |
| Cc1ccc(-c2cn3c(n2)CO[C@@H](CNC(=O)c2cccnc2)C3)cc1 | – | inactive: -22.7% [at 172 µM] | – |
| O=C1NC2(CCN(C(=O)c3ccccc3)C2)COc2ccccc21 (configuration not stated) | active: 100 µM | – | – |
| Cc1nc2c(c(-c3ccc(O)cc3)n1)CN(Cc1ccc(C(F)(F)F)cc1)CCC2 | active: 31.6 µM | – | – |
| c1csc(CN2CC[C@H](c3nc4ccccc4[nH]3)C2)c1 | inconclusive: 112 µM [inhibitor, partial curve, poor fit] | – | – |
